In article PMC7819943, “Rice protein-binding microarrays: a tool to detect cis-acting elements near promoter regions in rice” one finds binding signal data, which are given here for 42 sequences.

Some of the results follow.

The target in the experiment is T1, OsWOX13 (Oryza sativa, UniProt Q5QMM3 1-267).
T1 sequence: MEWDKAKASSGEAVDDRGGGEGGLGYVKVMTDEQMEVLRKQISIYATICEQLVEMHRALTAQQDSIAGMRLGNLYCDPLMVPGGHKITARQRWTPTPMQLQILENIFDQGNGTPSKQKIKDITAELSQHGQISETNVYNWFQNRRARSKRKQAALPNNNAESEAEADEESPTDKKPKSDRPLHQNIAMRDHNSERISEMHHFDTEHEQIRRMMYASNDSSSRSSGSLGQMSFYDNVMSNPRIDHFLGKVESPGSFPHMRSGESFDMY
Description: protein-binding microarray (RPBM); PBS, 2% BSA, 51.3 ng/ul salmon testes DNA, 50 uM zinc acetate, 200 nM TF, 25 C, 1 h; high values mean tight binding. As to conditions: protein: recombinant; tags: N-terminal polyhistidine and DsRed monomer fusion (pET32a); label: CyDye5-dUTP incorporated in the synthesized complementary strand; 3' TTTTT single-stranded linker to array surface; dsDNA, one strand shown. The procedure, abridged: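 Using Ni–NTA, transcription factors fused N-terminally to polyhistidine and DsRed were purified after expression in E. coli BL21-CodonPlus. These were incubated at 200 nM with a blocked, double-stranded custom Agilent array for 1 h at 25 °C in a buffer containing 50 µM zinc acetate, and the array was washed. The binding signal is per-feature fluorescence intensity (arbitrary units) on an Axon 4000B scanner.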
Turning to “ATATAATAGATAGATGGTGGATCTAGAGCATTCTATCAAGCGGAGTCACCTAGTGCAG”, the binding signal was 21400 fluorescence intensity (a.u.).

Regarding “CTATTAGATTAGCTATAAATGAATTGGAGCTAGCAGTTGGCGGAGTCACCTAGTGCAG”, the binding signal is 28100 fluorescence intensity (a.u.). Regarding “AACCAAATTAATCTATCATTATAACATGTTTACTGTAGCACGGAGTCACCTAGTGCAG”, the binding signal is 22100 fluorescence intensity (a.u.). With “TCGGACATAATTTGACAGTTACGTTCATGTGACCGACGGTCGGAGTCACCTAGTGCAG” the figure was 19400 fluorescence intensity (a.u.); with “GAGGATTTCTTAGTTGATTGCTACCTATACTCCGGAACAGCGGAGTCACCTAGTGCAG”, 19300 fluorescence intensity (a.u.); with “ACCTACAATTTAGATTGATTGATCATTCAATCAAATACATCGGAGTCACCTAGTGCAG”, 48300 fluorescence intensity (a.u.). As to “CCAAATCAATCAAATCGCATTCCACCAATTCTCCACTCTCCGGAGTCACCTAGTGCAG”, the binding signal is 27300 fluorescence intensity (a.u.). Under “ACTAATTGACTACTCCCTGAATTTAAAGTTGATGGTCAGTCGGAGTCACCTAGTGCAG” stands 61100 fluorescence intensity (a.u.); under “TAATAATCACTGACTCCTGCTATTCTCGTCAACCTATGTTCGGAGTCACCTAGTGCAG”, 4240 fluorescence intensity (a.u.); under “TCTCTAACACACCCATCAATCATGTATCCCCAGCACAAATCGGAGTCACCTAGTGCAG”, 6780 fluorescence intensity (a.u.). For “CTACTGATTTCTTAAAACCGGCGAAGAGTTGCAGATTCAGCGGAGTCACCTAGTGCAG”, the binding signal was 4770 fluorescence intensity (a.u.).

On to “GTACTAGTAATTTTATCATATGTCATCACGTCTATAATGTCGGAGTCACCTAGTGCAG”, for which the binding signal is 4350 fluorescence intensity (a.u.). In the case of “TGAATTTGACATGATAGAAGTAGTGGTTTTGCTGAAAACGCGGAGTCACCTAGTGCAG”, the binding signal was 4820 fluorescence intensity (a.u.). As for “ACTCCACTCGCTCGACGGCTGATTGCCTGCCTGCCTCCCCCGGAGTCACCTAGTGCAG”, the binding signal is 4290 fluorescence intensity (a.u.).

As to “ACTCCTATCAATCCGAAAATTCCCCATTTCTATTCCCCTGCGGAGTCACCTAGTGCAG”, the binding signal was 7740 fluorescence intensity (a.u.). As for “ATTATGATTTATTCCCACACACCCTGTACGTAGATGATGCCGGAGTCACCTAGTGCAG”, the binding signal was 17300 fluorescence intensity (a.u.).

“TATTAATTGAGTGAGATTTGGGGTATTCAGTCGACTGGCACGGAGTCACCTAGTGCAG”: the binding signal was 54900 fluorescence intensity (a.u.). For the sequence “ATCTTAATTAGTTAGTTGATGATATGAATAAATTAGAGGTCGGAGTCACCTAGTGCAG”, the binding signal is 44300 fluorescence intensity (a.u.). With “AGAAATTTGTTACTTTGCTTTCGTCTAACCTGTCATTAGTCGGAGTCACCTAGTGCAG” the figure was 3340 fluorescence intensity (a.u.). For “TGCCTTTAGATTGCCCTTTCCCTTTACATCCATGCAGAAACGGAGTCACCTAGTGCAG”, the binding signal is 4250 fluorescence intensity (a.u.). For the sequence “TTTGAATTGAGGGGTAAATTGAACGGTTTTAGAAGTTGAGCGGAGTCACCTAGTGCAG”, the binding signal is 19300 fluorescence intensity (a.u.). In the case of “TGCATATTATACTAATCAAGCCTTGTCGAGCTATTCGAGCCGGAGTCACCTAGTGCAG”, the binding signal was 5980 fluorescence intensity (a.u.).

“AGTTATTGATAACATAAGCCTTAAAAGTTCGCCCTAACCTCGGAGTCACCTAGTGCAG”: the binding signal was 4600 fluorescence intensity (a.u.). As for “GTGAAATAATTGACAGTGCTGAGAATTGGGTCAAGGTGTTCGGAGTCACCTAGTGCAG”, the binding signal is 39600 fluorescence intensity (a.u.).

On to “GAGAATAATCATGATGGACTGGGTTTAACGACAAGAAGCACGGAGTCACCTAGTGCAG”, for which the binding signal was 9670 fluorescence intensity (a.u.). In the case of “GTTTGATTTATTATTGTAATTATGGCAAGCCACATTTTGTCGGAGTCACCTAGTGCAG”, the binding signal was 38100 fluorescence intensity (a.u.). With “CTTGACCATTTCTGACAGATGCATATTTTGGATTTCCTGCCGGAGTCACCTAGTGCAG”, the binding signal was 6860 fluorescence intensity (a.u.). In the case of “GCCTTGCAACTGATTGATTATTGCTCGTTCCTTTATGTTTCGGAGTCACCTAGTGCAG”, the binding signal was 40000 fluorescence intensity (a.u.). Turning to “GCAATTACAAATTTACCACTATTTTGAATCGTTATTGCAACGGAGTCACCTAGTGCAG”, the binding signal was 6770 fluorescence intensity (a.u.). Regarding “ATGGAGTCAATTAATCCATGTTGTAACAATGTCAATGTGACGGAGTCACCTAGTGCAG”, the binding signal is 6640 fluorescence intensity (a.u.). For “ATTTATTAATTTATTGGTAGTGTTAAAGTCTAGGCAAACTCGGAGTCACCTAGTGCAG”, the binding signal was 15800 fluorescence intensity (a.u.). With “CATTCAAATTCAGTAGATGATTTTGGTATGACATTGTGCCCGGAGTCACCTAGTGCAG”, the binding signal was 3420 fluorescence intensity (a.u.). As to “GATCAAATCACACATGTCATCATGTTAGCGAGCGAAAGACCGGAGTCACCTAGTGCAG”, the binding signal is 4810 fluorescence intensity (a.u.). In the case of “ACCTAACAGACACCGGCCTTGCCTGCCTGCGACACACGCACGGAGTCACCTAGTGCAG”, the binding signal was 6020 fluorescence intensity (a.u.). As to “TTTGTGATATAAATCTAAATGTTCACTTGAAGCTGGAAGTCGGAGTCACCTAGTGCAG”, the binding signal was 3630 fluorescence intensity (a.u.).

With “TATTAGTGCCTAATTAATTAAATATTAATTATTATAAATTCGGAGTCACCTAGTGCAG”, the binding signal was 10200 fluorescence intensity (a.u.). On to “GTGATGAGTTTGATGACTGTTGAACTGATCCATACTCCCTCGGAGTCACCTAGTGCAG”, for which the binding signal was 6980 fluorescence intensity (a.u.).

On to “TCCGAGTGATTAATTCACACATTAATTTGTCTCATCGATCCGGAGTCACCTAGTGCAG”, for which the binding signal was 26100 fluorescence intensity (a.u.). Turning to “GTAATGACAGGTGACACCTAAGGTCTGTGAAACATACTCCCGGAGTCACCTAGTGCAG”, the binding signal was 4350 fluorescence intensity (a.u.). Consider “GTTGATTCATCTCGCGATTGATCGAGCTCGAGCGGCGGTGCGGAGTCACCTAGTGCAG”, for which the binding signal is 12900 fluorescence intensity (a.u.). Turning to “TTCTTTAATTTGTCTGAATATATACATTAAAATATCAAATCGGAGTCACCTAGTGCAG”, the binding signal was 6700 fluorescence intensity (a.u.). Turning to “ATTTCAATCAAATTTTCAATTTTAACGTAAACAAACACACCGGAGTCACCTAGTGCAG”, the binding signal was 47800 fluorescence intensity (a.u.).
